# This is one part of the list.
# B1: PX14367A-bth-493-35-493 (Bacteroides thetaiotaomicron) (protein)
# chain: VSSDQVAVAGNAERLFNGAWYNLFEYGTTYANIGYRALQCQDDMMASDVVSRPKYGFNSSYQFNDVAIPSDGRTSFAWYLIYKTIDNCNTAISIKGDSEELRQAQGQALALRAFCYLHLVQHYQFTYLKDKDAPCVPIYTEPTTSGTKPKGKSTVAQVYQQIFDDLNLAQDYLTNYVRKGDGQKFKPNTDVVNGLMARAYLLTGQWGEAAKAAEAARKGYSLMTTTAEYEGFNNISNKEWIWGSPQTLSQSDASYNFYYLDATYVGAYSSFMADPHLMDTFVKGDIRLPLFQWMREGYLGYKKFHMRSDDTADLVLMRSAEMYLIEAEAKVRDGVALDQAVAPLNTLRTARGVGNYDVTGKTKEQVIDEILMERRRELWGEGFGITDVLRNQKAVERMALSEDMQKTEVDCWQEGGSFAKRNPLGHWFLNFPDGKAFSANSSYYLYAIPEKEINANPNL
# What was measured:
# Assay in all cases: glycan array binding signal (z-score within array); higher = stronger binding
# Details in all cases: glycan notation: IUPAC condensed, linker removed
# [1] = target: Neu5Ac(a2-6)Gal(b1-4)GlcNAc(b1-6)GalNAc
# Procedure, shortened: (§1)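 The Consortium for Functional Glycomics database supplied 3228 glycan arrays, of which those lacking an available protein sequence were dropped. The binding signal, a within-array Z-score, was averaged across arrays of the same protein sequence and across linkers. Negative scores can be read as non-binding.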
# [2] = target: Neu5Ac(a2-6)Gal(b1-4)GlcNAc(b1-6)[Gal(b1-3)GlcNAc(b1-3)]Gal(b1-4)Glc
# Procedure, shortened: as §1
# [3] = target: Neu5Ac(a2-6)Gal(b1-4)GlcNAc(b1-6)[Gal(b1-3)]GalNAc
# Procedure, shortened: as §1
# [4] = target: Neu5Ac(a2-6)Gal(b1-4)GlcNAc6S
# Procedure, shortened: as §1
# Neu5Ac(a2-6)GalNAc = target: Neu5Ac(a2-6)GalNAc
# Procedure, shortened: as §1
# [5] = target: Neu5Ac(a2-6)GalNAc(b1-4)GlcNAc
# Procedure, shortened: as §1
# [6] = target: Neu5Ac(a2-6)GalNAc(b1-4)GlcNAc6S
# Procedure, shortened: as §1
# [7] = target: Neu5Ac(a2-6)GlcNAc(b1-4)GlcNAc
# Procedure, shortened: as §1
# [8] = target: Neu5Ac(a2-6)GlcNAc(b1-4)GlcNAc(b1-4)GlcNAc
# Procedure, shortened: as §1
# Neu5Ac(a2-8)Neu5Ac = target: Neu5Ac(a2-8)Neu5Ac
# Procedure, shortened: as §1
# [9] = target: Neu5Ac(a2-8)Neu5Ac(a2-3)Gal(b1-3)GalNAc(b1-4)[Neu5Ac(a2-3)]Gal(b1-4)Glc
# Procedure, shortened: as §1
# [10] = target: Neu5Ac(a2-8)Neu5Ac(a2-3)Gal(b1-3)GalNAc(b1-4)[Neu5Ac(a2-8)Neu5Ac(a2-3)]Gal(b1-4)Glc
# Procedure, shortened: as §1
# [11] = target: Neu5Ac(a2-8)Neu5Ac(a2-3)Gal(b1-4)Glc
# Procedure, shortened: as §1
# [12] = target: Neu5Ac(a2-8)Neu5Ac(a2-3)Gal(b1-4)GlcNAc
# Procedure, shortened: as §1
# [13] = target: Neu5Ac(a2-8)Neu5Ac(a2-3)[Gal(b1-3)GalNAc(b1-4)]Gal(b1-4)Glc
# Procedure, shortened: as §1
# [14] = target: Neu5Ac(a2-8)Neu5Ac(a2-3)[GalNAc(b1-4)]Gal(b1-4)Glc
# Procedure, shortened: as §1
# [15] = target: Neu5Ac(a2-8)Neu5Ac(a2-8)Neu5Ac
# Procedure, shortened: as §1
# [16] = target: Neu5Ac(a2-8)Neu5Ac(a2-8)Neu5Ac(a2-3)Gal(b1-4)Glc
# Procedure, shortened: as §1
# [17] = target: Neu5Ac(a2-8)Neu5Ac(a2-8)Neu5Ac(a2-3)[Gal(b1-3)GalNAc(b1-4)]Gal(b1-4)Glc
# Procedure, shortened: as §1
# [18] = target: Neu5Ac(a2-8)Neu5Ac(a2-8)Neu5Ac(a2-3)[GalNAc(b1-4)]Gal(b1-4)Glc
# Procedure, shortened: as §1
# [19] = target: Neu5Ac(a2-8)Neu5Ac(a2-8)Neu5Ac(a2-8)Neu5Ac(a2-3)[GalNAc(b1-4)]Gal(b1-4)Glc
# Procedure, shortened: as §1
# [20] = target: Neu5Ac(a2-8)Neu5Gc(a2-3)Gal(b1-4)GlcNAc
# Procedure, shortened: as §1
# [21] = target: Neu5Ac(b2-6)Gal(b1-4)GlcNAc
# Procedure, shortened: as §1
# Neu5Ac(b2-6)GalNAc = target: Neu5Ac(b2-6)GalNAc
# Procedure, shortened: as §1
# [22] = target: Neu5Ac9Ac(a2-3)Gal(b1-3)GlcNAc
# Procedure, shortened: as §1
# [23] = target: Neu5Ac9Ac(a2-3)Gal(b1-4)GlcNAc
# Procedure, shortened: as §1
# [24] = target: Neu5Ac9Ac(a2-6)Gal(b1-4)GlcNAc
# Procedure, shortened: as §1
# [25] = target: Neu5Gc(a2-3)Gal(b1-3)GlcNAc
# Procedure, shortened: as §1
# [26] = target: Neu5Gc(a2-3)Gal(b1-3)[Fuc(a1-4)]GlcNAc
# Procedure, shortened: as §1
# Neu5Gc(a2-3)Gal(b1-4)Glc = target: Neu5Gc(a2-3)Gal(b1-4)Glc
# Procedure, shortened: as §1
# [27] = target: Neu5Gc(a2-3)Gal(b1-4)GlcNAc
# Procedure, shortened: as §1
# [28] = target: Neu5Gc(a2-3)Gal(b1-4)GlcNAc(b1-3)Gal(b1-4)GlcNAc(b1-2)Man(a1-3)[Neu5Gc(a2-3)Gal(b1-4)GlcNAc(b1-3)Gal(b1-4)GlcNAc(b1-2)Man(a1-6)]Man(b1-4)GlcNAc(b1-4)GlcNAc
# Procedure, shortened: as §1
# [29] = target: Neu5Gc(a2-3)Gal(b1-4)[Fuc(a1-3)]GlcNAc
# Procedure, shortened: as §1
# [30] = target: Neu5Gc(a2-6)Gal(b1-4)GlcNAc
# Procedure, shortened: as §1
# Neu5Gc(a2-6)GalNAc = target: Neu5Gc(a2-6)GalNAc
# Procedure, shortened: as §1
# [31] = target: Neu5Gc(a2-8)Neu5Ac(a2-3)Gal(b1-4)GlcNAc
# Procedure, shortened: as §1
# [32] = target: Neu5Gc(a2-8)Neu5Gc(a2-3)Gal(b1-4)GlcNAc
# Procedure, shortened: as §1
# [33] = target: Neu5Gc(a2-8)Neu5Gc(a2-3)Gal(b1-4)GlcNAc(b1-3)Gal(b1-4)GlcNAc
# Procedure, shortened: as §1
binder,measurement,setting,value
B1,glycan array binding signal (z-score),[1],-0.706
same,glycan array binding signal (z-score),[2],0.106
same,glycan array binding signal (z-score),[3],0.377
same,glycan array binding signal (z-score),[4],-0.513
same,glycan array binding signal (z-score),Neu5Ac(a2-6)GalNAc,-0.43
same,glycan array binding signal (z-score),[5],-0.719
same,glycan array binding signal (z-score),[6],-0.442
same,glycan array binding signal (z-score),[7],-0.254
same,glycan array binding signal (z-score),[8],-0.31
same,glycan array binding signal (z-score),Neu5Ac(a2-8)Neu5Ac,-0.536
same,glycan array binding signal (z-score),[9],-0.043
same,glycan array binding signal (z-score),[10],0.477
same,glycan array binding signal (z-score),[11],-0.436
same,glycan array binding signal (z-score),[12],-0.461
same,glycan array binding signal (z-score),[13],-0.3
same,glycan array binding signal (z-score),[14],-0.14
same,glycan array binding signal (z-score),[15],-0.109
same,glycan array binding signal (z-score),[16],-0.224
same,glycan array binding signal (z-score),[17],-0.506
same,glycan array binding signal (z-score),[18],0.062
same,glycan array binding signal (z-score),[19],1.03
same,glycan array binding signal (z-score),[20],11.1
same,glycan array binding signal (z-score),[21],-0.259
same,glycan array binding signal (z-score),Neu5Ac(b2-6)GalNAc,-0.169
same,glycan array binding signal (z-score),[22],-0.122
same,glycan array binding signal (z-score),[23],-0.272
same,glycan array binding signal (z-score),[24],-0.162
same,glycan array binding signal (z-score),[25],-0.453
same,glycan array binding signal (z-score),[26],-0.288
same,glycan array binding signal (z-score),Neu5Gc(a2-3)Gal(b1-4)Glc,-0.51
same,glycan array binding signal (z-score),[27],-0.379
same,glycan array binding signal (z-score),[28],-0.346
same,glycan array binding signal (z-score),[29],-0.326
same,glycan array binding signal (z-score),[30],-0.3
same,glycan array binding signal (z-score),Neu5Gc(a2-6)GalNAc,0.297
same,glycan array binding signal (z-score),[31],-0.456
same,glycan array binding signal (z-score),[32],-0.549
same,glycan array binding signal (z-score),[33],-0.049

# From the supplement of paper PMC8728848
